In the antibiotic and cytotoxicity screens of Wong et al. (2023):
The list shows a part of the results.

How the values were obtained:
[1] = tested on: HSkMC (human skeletal muscle cells); assay: cytotoxicity call (relative viability < 0.9); conditions: 10 µM
[2] = tested on: HepG2; assay: cytotoxicity call (relative viability < 0.9); conditions: 10 µM
[3] = tested on: S. aureus RN4220; assay: growth inhibition call (relative growth <= 0.2); conditions: 50 µM

| Compound | cytotoxicity call [1] | cytotoxicity call [2] | growth inhibition call [3] |
| --- | --- | --- | --- |
| COCCCNC(=O)[C@@]1(Sc2ccc(C)cc2)CC(=O)N(Cc2ccccc2C(F)(F)F)[C@@H]1c1ccc(CO)cc1I | inactive | inactive | inactive |
| CN(C)CCCNC(=O)C[C@@H]1CC[C@H]2[C@@H](COC[C@H](O)CN2S(=O)(=O)c2ccc(F)cc2)O1 | inactive | inactive | inactive |
| Nc1cnn([C@H]2O[C@@H](COC(=O)c3ccccc3)[C@@H](O)[C@@H]2O)c(=O)n1 | inactive | inactive | inactive |
| C[C@@H]1CCCCO[C@H](CN(C)CC2CCCCC2)[C@H](C)CN([C@@H](C)CO)C(=O)c2cc(NC(=O)NC3CCCCC3)ccc2O1 | inactive | inactive | inactive |
| C[C@@H]1CCCCO[C@H](CN(C)C(=O)Nc2ccc(F)cc2)[C@H](C)CN([C@H](C)CO)C(=O)c2cc(NS(=O)(=O)c3ccc(F)cc3)ccc2O1 | inactive | inactive | inactive |
| C[C@H]1CN([C@@H](C)CO)C(=O)CCCn2nncc2CO[C@H]1CN(C)C(=O)c1ccc(N2CCN(C)CC2)cc1 | inactive | inactive | inactive |
| COc1ccc(COC[C@@]23Oc4ccccc4[C@@H](NC(=O)N2C)[C@H]3COC(=O)NCCCCCC(=O)NO)cc1 | inactive | inactive | inactive |
| Clc1ccc(Cn2cccc2)cn1 | inactive | inactive | inactive |
| COc1ncnc2nc[nH]c12 | inactive | inactive | inactive |
| COc1cc2c(cc1OC)[C@]1(Nc3c-2c(-c2ccccc2)nn3-c2ccccc2)C(=O)Nc2ccccc21 | inactive | inactive | inactive |
| CO[C@@H]1CN(C)C(=O)c2cc(NC(=O)NC3CCCCC3)ccc2OC[C@@H](C)N(CCc2ccccc2)C[C@H]1C | inactive | active | inactive |
| COCC#Cc1ccc2c(c1)O[C@H](CN(C)C(=O)COC)[C@@H](C)CN([C@H](C)CO)S2(=O)=O | inactive | inactive | inactive |
| CO[C@@H](CN(C)C(=O)c1ccccc1F)[C@@H](C)CN([C@H](C)CO)S(=O)(=O)c1ccc(Cl)cc1 | inactive | inactive | inactive |
| COCC(=O)Nc1ccc2c(c1)C(=O)N(C)[C@H]1CC[C@@H](CC(=O)NC3Cc4ccccc4C3)O[C@H]1CO2 | inactive | inactive | inactive |
| CC(C)NC(=O)N(C)C[C@H]1OCc2cnnn2CCCC(=O)N([C@H](C)CO)C[C@H]1C | inactive | inactive | inactive |
| COc1ccc(NC(=O)N(C)C[C@H]2Oc3c(NC(=O)Nc4cccc5ccccc45)cccc3C(=O)N([C@@H](C)CO)C[C@@H]2C)cc1 | active | inactive | inactive |
| O=C(C[C@H]1C[C@H]2c3cc(NC(=O)c4ccc5c(c4)OCO5)ccc3O[C@H]2[C@H](CO)O1)NCc1ccccn1 | inactive | inactive | inactive |
| CC(C)[N+]1(C)C2CCC1CC(OC(=O)C(CO)c1ccccc1)C2.[Br-] (centres undefined) | inactive | inactive | inactive |
| COCc1nnc2n1CCN(C(=O)c1ccn[nH]1)C2 | inactive | inactive | inactive |
| Cc1nnc(Nc2cccc([C@H]3CCCN(C(=O)CN)C3)n2)s1 | inactive | inactive | inactive |
| CC(=O)N1CCS(=O)(=O)[C@H]2CCN(S(=O)(=O)Cc3ccccc3)CC[C@@H]21 | inactive | inactive | inactive |
| COc1ccc(CCNC(=O)[C@@]2(Sc3ccc(C)cc3)CC(=O)N(Cc3ccccc3Cl)[C@@H]2c2ccc(CO)cc2I)cc1 | inactive | inactive | inactive |
| CC(C)CC#Cc1cnc2c(c1)C(=O)N([C@@H](C)CO)C[C@@H](C)[C@H](CN(C)C(=O)CN1CCOCC1)O2 | inactive | inactive | inactive |
| NNC(=O)CCCCC(=O)NO | inactive | active | inactive |
| C[C@@H]1CCCCO[C@@H](CN(C)C(=O)Nc2ccc(F)cc2)[C@@H](C)CN([C@@H](C)CO)C(=O)c2cc(NC(=O)CCCN(C)C)ccc2O1 | inactive | inactive | inactive |
| C[C@H](CO)N1C[C@H](C)[C@@H](CN(C)C(=O)Nc2ccc3c(c2)OCO3)OCCCC[C@H](C)Oc2ccc(NC(=O)CCC(F)(F)F)cc2C1=O | inactive | inactive | inactive |
| C[C@H](CO)N1C[C@H](C)[C@H](CN(C)C(=O)Nc2ccc(F)cc2)OCCCC[C@H](C)Oc2ccc(NC(=O)Cc3ccccc3)cc2C1=O | inactive | inactive | inactive |
| C[C@@H]1CN([C@H](C)CO)C(=O)c2cc(-c3ccc(F)cc3)cnc2O[C@@H]1CN(C)C(=O)Cc1ccccn1 | inactive | inactive | inactive |
